Laboratory results from PubChem BioAssay AID686978 (National Center for Advancing Translational Sciences (NCATS), 2013).
Out of some 420,000 compounds screened, about 64,000 (15%) were called active. Inconclusive results, whose numbers are uncertain, are shown with a selection of clear calls. The call rests on the fitted dose curve; in most records, active means well fitted inhibition curve with a large enough effect; inconclusive means small, poorly fitted or top-dose-only effect; inactive means flat fitted curve, though single readings scatter. No potency is given beside an inconclusive call; the fits are too rough.

Assay: qHTS for Inhibitors of human tyrosyl-DNA phosphodiesterase 1 (TDP1): qHTS in cells in absence of CPT; further: nearly all actives have a fitted effect of over 55% in size
Details: DT40 Tdp1-/- hTDP1 cells, no CPT, ATP luminescence, 48 h; activity change, negative = growth inhibition: at 46.2 µM (top of the series) unless noted
Procedure, shortened: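 Growth of hTDP1-complemented DT40 Tdp1-knockout cells is measured by ATP luminescence after at least 48 hr compound exposure at 37 °C, with DMSO substituting for the 20 nM CPT used in the parallel screen.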
On the % scale 0 is the no-effect control and ±100 the full control effect; potency means the concentration at half of the fitted maximal effect; tags describe the fitted curve by direction and shape.

| SMILES | Potency | activity change, negative = growth inhibition |
| --- | --- | --- |
| Cc1ccc(-n2ncc(C(=O)NCCN3CCCC3)c2C2CCN(C(=O)OC(C)(C)C)CC2)cc1 | inconclusive [inhibitor, single point] | – |
| Cc1cc(C)c(NC(=O)c2cc(S(=O)(=O)NCCC3=CCCCC3)ccc2F)c(C)c1 | inconclusive [inhibitor, single point] | – |
| C/C(=N\NC(=O)c1csc2ccccc12)c1ccc(O)cc1 | active: 9.2 µM | – |
| Cc1cccc(CNC(=O)c2cnn(-c3nccc(-c4ccccc4C(F)(F)F)n3)c2C)n1 | inconclusive [inhibitor, partial curve, poor fit] | – |
| COc1ccc(NC(=O)N2CC[C@@]3(CCCN(C(=O)c4ccco4)C3)C2)cc1 | inactive | – |
| CC1CCN(C(=O)CN(c2ccc(Cl)c(C(F)(F)F)c2)S(C)(=O)=O)CC1 | – | inconclusive: -31.1% [inhibitor] |
| CCn1ccc2cc(S(=O)(=O)N3CCC(C(=O)NCc4cccc(Cl)c4)CC3)ccc21 | inconclusive [inhibitor, single point] | – |
| CN(C)c1nc(N(C)C)nc(N2CC(=O)N(c3ccccc3)C2=N)n1 | inconclusive [inhibitor, single point] | – |
| Cc1nc2ccccc2nc1-c1ccc([N+](=O)[O-])cc1 | inconclusive [inhibitor, partial curve] | – |
| COc1ccccc1/C=C/C=N/N1CCN(Cc2ccc(Cl)cc2)CC1 | inconclusive [inhibitor, single point] | – |
| Cc1cc(C(=O)Cn2nnc3ccccc3c2=O)c(C)n1-c1ccccc1F | inconclusive [inhibitor, single point] | – |
| CCC(=O)Nc1ccc(S(=O)(=O)Nc2c(NC)c3ccccc3oc2=O)cc1 | – | inconclusive: -33.8% [inhibitor] |
| Cc1ccc(-n2c(-c3cnccn3)n[nH]c2=S)c(Br)c1 | inactive | – |
| CCOc1cc(CNC2CCCC2)cc(Cl)c1OCc1ccc(F)cc1 | active: 23.1 µM | – |
| O=C(CN1CCN(Cc2ccccc2Cl)CC1)N/N=C/C=C/c1ccco1 | inconclusive [inhibitor, single point] | – |
| CCC(C(=O)NC(C)(C)C)N(Cc1ccccc1Cl)C(=O)c1snc(C(N)=O)c1N (configuration not stated) | inactive | – |
| Cc1ccc(C2=NS(=O)(=O)N(C)C(C(=O)NC3CCCCC3)=C2)cc1 | inactive | – |
| CCOc1ccc(N(C)S(=O)(=O)c2c(C(=O)N3CCC(C)CC3)c(C)n(C)c2C)cc1 | inconclusive [inhibitor, single point] | – |
| COc1ccc(Cl)cc1NS(=O)(=O)c1cccc(C(=O)NCC(c2ccco2)N(C)C)c1 (configuration not stated) | inactive | – |
| O=C(COc1ccc(Br)cc1)Nc1cc(S(=O)(=O)N2CCCCC2)ccc1N1CCCCC1 | inconclusive [inhibitor, single point] | – |
| CC[C@@H]1C(=O)[C@H](Cc2ccccc2)[C@H]2CCCC(=O)N3CC[C@@H]1[C@@H]23 | – | inconclusive: -30.9% [inhibitor] |
| CC1(Cc2ccccc2OC(F)(F)F)C(=O)Nc2ccc(S(=O)(=O)NC3CCCCC3)cc21 (configuration not stated) | inconclusive [inhibitor, single point] | – |
| CC1(C(=O)Nc2ccc3nc[nH]c3c2)CCN1C(=O)C1(c2ccccc2)CCCC1 (configuration not stated) | inconclusive [inhibitor, single point] | – |
| CCN(CC)C(=O)C1=C(C)N(CCCOC)C(=O)C(CC(=O)NCCCCc2ccccc2)C1 (configuration not stated) | inactive | – |

| SMILES | Potency | activity change, negative = growth inhibition |
| --- | --- | --- |
| Cc1cccc(-n2ncc(C(=O)N3CCN(Cc4ccccc4)CC3)c2C2CCN(C(=O)OC(C)(C)C)CC2)c1 | active: 16.4 µM | – |
| COc1ccccc1C(=O)NCCC(=O)N1CCN(c2ccccc2Cl)CC1 | inconclusive [inhibitor, single point] | – |
| Cc1ccc(C)c(NC(CC(=O)c2ccccc2)C(=O)OCC(=O)c2cccs2)c1 (configuration not stated) | inconclusive [inhibitor, single point] | – |
| COC(=O)c1ccc2c(=O)[nH]c(CCl)nc2c1 | active: 14.6 µM | – |
| O=C(O)C(c1ccccc1)N1C(=O)/C(=C\c2ccc(-c3cccc(Cl)c3)o2)SC1=S (configuration not stated) | inactive | – |
| CCOc1ccccc1NC(=O)N1c2ccccc2Sc2ccccc21 | active: 25.9 µM | – |
| CCN1C(=O)[C@H]2[C@@H](c3ccc(C)cc3)N3C(=O)N(c4ccc(OC)cc4)C(=O)[C@@]3(CC)[C@H]2C1=O | inactive | – |
| COc1ccc(CCNS(=O)(=O)c2ccc(Br)cc2)cc1OC | inactive | – |
| Cc1ccc(NC(=O)Cn2nnc3sc4c(c3c2=O)CCC(C)C4)cc1 (configuration not stated) | inactive | – |
| CCN1CC(CNCc2cn(-c3ccc(OC)cc3)nc2-c2ccccc2Cl)CC1=O (configuration not stated) | inconclusive [inhibitor, single point] | – |
| COc1ccc(NC(=O)O/N=C/c2c(C)nn(C(C)(C)C)c2C)cc1 | – | inconclusive: -32.1% [inhibitor] |
| COC(=O)C1C(c2ccc(Br)cc2)Nc2nnc(C(F)(F)F)n2C1(C)O (configuration not stated) | inactive | – |
| Cc1[nH]c(=O)[nH]c1C(=O)CCCCC(=O)O | inactive | – |
| COC(=O)[C@]12CCCCC=C1N(Cc1ccc(Cl)cc1Cl)C(=O)[C@H](CC(=O)NCc1ccc(C)o1)C2 | active: 16.4 µM | – |
| Cc1cc(C)n2cc(-c3ccc(Cl)cc3)c(C(=O)O)c2n1 | inactive | – |
| CN(C)c1cc(N/N=C/c2ccccc2C(F)(F)F)nc(N(C)C)n1 | inconclusive [inhibitor, single point] | – |
| COc1ccccc1-c1ccc2ncnc(N(C)Cc3ccco3)c2c1 | inconclusive [inhibitor, single point] | – |
| COc1ccccc1NC(=O)CSc1nnc(NC(=O)NC2CCCCC2)s1 | inconclusive [inhibitor, single point] | – |
| COc1cc(/C=N/Nc2nncn2/N=C/c2ccc(O)c(OC)c2)ccc1O | inconclusive [inhibitor, single point] | – |
| CC(=O)Nc1ccc2c(c1)OCCOCCOc1cc(NC(C)=O)ccc1OCCO2 | inconclusive [inhibitor, single point] | – |
| NC(=O)c1ccsc1NC(=O)c1cccs1 | inactive | – |
| COc1ccccc1/C=C/c1nc(C#N)c(N2CCN(C)CC2)o1 | inconclusive [inhibitor, partial curve] | – |
| Cc1nn(-c2ccccc2)c2c1cc1c(=O)[nH]c(=O)nc-1n2-c1cccc(Cl)c1 | inactive | – |
| CC(CNC(=O)CN1C(=O)NC2(CCOc3ccccc32)C1=O)c1ccccc1 (configuration not stated) | inconclusive [inhibitor, partial curve] | – |

| SMILES | Potency | activity change, negative = growth inhibition |
| --- | --- | --- |
| O=C(NNC(=O)c1cccc(O)c1)Nc1ccc([N+](=O)[O-])cc1 | inactive | – |
| CC1=C(C(=O)N(C)C)CC(CC(=O)NCc2cccs2)C(=O)N1CCC1=CCCCC1 (configuration not stated) | inconclusive [inhibitor, single point] | – |
| CCn1c(C)c(C(C)=O)cc(C#N)c1=O | inactive | – |
| COc1ccc(C(=O)N2CCC(c3nc4ccccc4s3)CC2)cc1Cl | active: 10.3 µM | – |
| Cc1cc(NC(=O)Nc2nnc(N(C)C3CCCCC3)s2)ccc1Br | inconclusive [inhibitor, single point] | – |
| O=C(NCc1nnnn1-c1ccc(F)cc1)c1ccc(S(=O)(=O)N2CCOCC2)cc1 | inconclusive [inhibitor, partial curve] | – |
| O=C(CSc1n[nH]c(-c2ccccc2)n1)c1ccccc1 | inconclusive [inhibitor, single point] | – |
| Cn1cccc1-c1cc(C(=O)N2CCc3c([nH]c4ccccc34)C2c2ccccn2)[nH]n1 (configuration not stated) | inconclusive [inhibitor, single point] | – |
| CCN(CC)S(=O)(=O)c1ccc(NC(=O)CSc2nc3nc(C)cc(C)c3c(=O)[nH]2)cc1 | inconclusive [inhibitor, partial curve, poor fit] | – |
| O=C1CN(C(=O)COc2c(F)c(F)cc(F)c2F)c2ccccc2N1 | inactive | – |
| Cc1ccc2nc(N3CCN(S(=O)(=O)c4ccc(C)c(Cl)c4)CC3)c(C#N)cc2c1 | active: 20.6 µM | – |
| CC(C)[C@H](N)C(=O)NC[C@H]1O[C@@H](n2cnc3c(N)ncnc32)[C@H](O)[C@@H]1O | inactive | – |
| COc1cc(N)c2ncccc2c1SC | inconclusive [inhibitor, single point] | – |
| CCOc1cccc(C2C=C(c3ccc4c(c3)OCO4)NC(c3cccc(Br)c3)N2)c1O (configuration not stated) | active: 10 µM | – |
| CC(C)=CCC/C(C)=C/C=N/NC(=O)c1ccccc1[N+](=O)[O-] | – | inconclusive: -37.2% [inhibitor] |
| COc1cc(OC)c2c(-c3cccc(-c4ccc(N(C)C)cc4)c3)cc(=O)oc2c1 | active: 1.16 µM | – |
| Cc1ccc(S(=O)(=O)NCc2ccccn2)cc1C | inactive | – |
| C/C(=N\O)c1ccc2[nH]ccc2c1 | inactive | – |
| Cc1ccsc1C(=O)N1CCC1(C)C(=O)NCCC#N (configuration not stated) | inactive | – |
| Cc1ccc(S(=O)(=O)CCC(=O)Nc2ccc(OC(F)(F)F)cc2)cc1 | inconclusive [inhibitor, single point] | – |
| Cc1cccc(NC(=O)Cn2ncc3c4ccccc4n(Cc4ccccc4)c3c2=O)c1C | active: 23.1 µM | – |
| IC(I)I | inconclusive [inhibitor, single point] | – |
| COc1cc(Cl)c(C)cc1NC(=O)CSc1nc2c(c(=O)[nH]1)CCC2 | inconclusive [inhibitor, single point] | – |
| COc1ccccc1C1(O)CCN(CC(=O)Nc2nc(-c3ccccc3)cs2)CC1 | inconclusive [inhibitor, single point] | – |
